The target in this assay is Human PDGF-AB/BB (3:1). The experiment in a line: cell-based or functional assay.

B1: H4H13132P (antibody, human IgG4 S228P, kappa)
heavy: QVQLVQSGAEVKKPGSSVKVSCKASGGTFSSYAISWVRQAPGQGLEWMGGIIPIFGTANYAQKFQGRVTITTDESTSTAYMELSSLRSEDTAVYYCAREGYGDYYFGMDVWGQGTTVTVSSASTKGPSVFPLAPCSRSTSESTAALGCLVKDYFPEPVTVSWNSGALTSGVHTFPAVLQSSGLYSLSSVVTVPSSSLGTKTYTCNVDHKPSNTKVDKRV[human IgG4 Fc with S228P (EU numbers) left out here]
light: [about 100 residues left out here][about 120 residues left out here]
Consider B1, for which the (%) Inhibition, calcium flux in HLF cells, 1 nM ligand, 60 Second Timepoint was found to be 100%; the (%) Inhibition, calcium flux in HLF cells, 1 nM ligand, Full Time Course amounted to 87%; the (%) Inhibition, calcium flux in PASM cells, 1 nM ligand, 60 Second Timepoint stood at 100%; the (%) Inhibition, calcium flux in PASM cells, 1 nM ligand, Full Time Course amounted to 72%. Moreover, the IC50, calcium flux (FLIPR) in HLF cells, 1 nM ligand, 60 Second Timepoint stood at 0.54 nM; the IC50, calcium flux (FLIPR) in HLF cells, 1 nM ligand, Full Time Course stood at 5.5 nM; the IC50, calcium flux (FLIPR) in PASM cells, 1 nM ligand, 60 Second Timepoint is 4.5 nM; the IC50, calcium flux (FLIPR) in PASM cells, 1 nM ligand, Full Time Course was 330 nM.

The record behind these values is patent publication US20220242943A1.
